Here are results for 96 compounds from PubChem BioAssay AID485344 (National Center for Advancing Translational Sciences (NCATS), 2010).

Each structure is given as a SMILES string. Screen size: about 340,000 compounds; about 6,900 (2%) were called active. Rule as the data show it: active = inhibition above about 30%; inactive = below that, where a call was filed. This is a selection; strong and weak results do not stand in their true shares. Where no call is shown, the source filed none.

By inhibition is commonly meant the change of the read-out against control, counted positive when it falls.

The target in this experiment is D(2) dopamine receptor (Homo sapiens) (UniProt P14416). The experiment in a line: HTS Assay for Allosteric Antagonists of the Human D2 Dopamine Receptor: Primary Screen for Antagonists. Also: 0% is about no effect. As to conditions: HEK293 TREx D2 cells, calcium flux, dopamine EC80; at 10 µM; stronger effect = higher value. The method in brief: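 Read-out: kinetic calcium fluorescence (1 cycle/s) in inducible HEK293 T-REx D2 cells after an EC80 dopamine addition that followed 180 s compound preincubation. Loss of the dopamine response indicates antagonism.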
Chain of UniProt P14416 (P14416 whole entry, looked up): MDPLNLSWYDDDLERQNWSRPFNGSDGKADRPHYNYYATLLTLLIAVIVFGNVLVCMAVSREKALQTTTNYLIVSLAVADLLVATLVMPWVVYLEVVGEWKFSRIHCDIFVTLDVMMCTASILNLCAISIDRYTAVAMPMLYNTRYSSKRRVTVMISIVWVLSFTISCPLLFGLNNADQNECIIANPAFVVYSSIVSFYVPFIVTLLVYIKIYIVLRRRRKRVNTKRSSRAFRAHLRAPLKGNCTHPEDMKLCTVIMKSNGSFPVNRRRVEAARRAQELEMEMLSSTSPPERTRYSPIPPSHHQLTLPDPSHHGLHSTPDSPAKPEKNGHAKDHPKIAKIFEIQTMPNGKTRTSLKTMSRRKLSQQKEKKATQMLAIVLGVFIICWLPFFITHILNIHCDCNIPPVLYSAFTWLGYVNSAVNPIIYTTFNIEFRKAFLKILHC
On the technique in general: A change in cytosolic calcium serves as a functional read-out for many receptors and channels.
Take `Cn1c(=O)n(C)c2cc(N3CCOCC3)c(NC(=O)c3ccc(C(C)(C)C)cc3)cc21`: the inhibition is -13%.
Regarding `Nc1ncnc(Nc2ccccn2)c1[N+](=O)[O-]`, the inhibition was active: 30.9%.
As for `CCOCCCn1c(SCC(=O)NCc2ccccc2)nc2c(sc3ccccc32)c1=O`, the figure is 5.26%.
As for `COc1cccc(NC(=O)Nc2ccc3snnc3c2)c1`, the inhibition is -3.67%.
As for `CC(C)CCNC(=O)c1cc(-c2ccc(Br)s2)nc2ccccc12`, the figure is 15.4%.
As for `COc1ccc(-c2cc(C)no2)cc1S(=O)(=O)N1CCCC(C)C1` (stereo unspecified), the figure is -1.29%; as for `Cc1cccc(NC(=O)c2ccc3[nH]c(C)cc(=O)c3c2)c1`, 3.45%; as for `Cn1c(=O)[nH]c(=O)c2c1nc(CN1CCN(c3ccccc3)CC1)n2Cc1c(F)cccc1Cl`, -12.3%.
In the case of `COc1cc(C2=NOC(C(=O)Nc3ccc(C)cc3)C2)cc(OC)c1OC` (stereo unspecified) it was active: 57.1%.
On to `CCC(=O)N1CCc2cc(S(=O)(=O)NC(Cc3ccccc3)C(=O)NCc3ccccc3OC)ccc21` (stereo unspecified), for which the inhibition is -24.8%.
As for `CC(C)(C)c1ccc(C(=O)Nc2ccc(NC(=O)c3ccc(Cl)c(Cl)c3)cc2)cc1`, the figure is 7.98%; as for `COc1cc(NC(=O)C(CC(C)C)N2Cc3ccccc3C2=O)cc(OC)c1` (stereo unspecified), -14.7%; as for `CCOc1ccc(NC(=O)CSc2nc3ccsc3c(=O)n2CC)cc1`, -7.65%.
Turning to `CCN(CC)C(=O)c1ccc2c(c1)N(Cc1ccccc1F)C(=O)c1ccccc1S2=O` (stereo unspecified), the inhibition was -2.63%.
In the case of `Cc1ccc(NC(=O)Cn2c(=O)nc(-c3ccccc3)c3ccccc32)cc1` it was 4.91%.
In the case of `CCCCNC(=O)CCn1nc(-c2ccc(Cl)cc2)c2ccccc2c1=O` it was -5.21%; in that of `CCCCOc1ccc(CNC(=O)c2cnc3sc(N4CCCCCC4)nn3c2=O)cc1`, 0.486%; in that of `Cc1cccc(C(=O)n2nc(-c3cccnc3)nc2NCc2ccc(F)cc2)c1`, -4.14%.
As for `CCC(Oc1ccccc1)C(=O)Nc1cc(-c2ccccc2F)nn1-c1ccccc1` (stereo unspecified), the figure is -12.7%.
`CCN(CC)S(=O)(=O)c1ccc2c(c1)N(CC(=O)NCCc1ccccc1)C(=O)CO2`: the inhibition amounted to 6.8%.
As for `CCN1CCN(c2nc3c(S(=O)(=O)c4ccc(C)cc4)nnn3c3ccsc23)CC1`, the figure is -9.73%; as for `CCc1ccc2oc(-c3cccc(NC(=O)COc4ccccc4Cl)c3)nc2c1`, -11.4%.
As for `CCOc1ccc2nc(N3CCCC(C(=O)Nc4ccc(CC)cc4)C3)sc2c1` (stereo unspecified), the figure is 0.156%; as for `COc1cc(OC)c(NC(=O)CC(C)S(=O)(=O)c2ccc3c(c2)NC(=O)CO3)cc1Cl` (stereo unspecified), -0.414%.
As for `COc1ccc(S(=O)(=O)NCCc2csc(-c3cccc(F)c3)n2)cc1OC`, the figure is 1.94%; as for `CCn1cc(S(=O)(=O)c2ccc(OC)cc2)c(=O)c2cc(F)c(N3CCCCCC3)cc21`, -0.0562%.
Regarding `COc1ccc(-c2nn(-c3ccc(C)c(Cl)c3)c3c2cnc2cc(OC)c(OC)cc23)cc1`, the inhibition was -12.4%.
On to `Nc1nc(Nc2cccc(Cl)c2)sc1C(=O)c1ccc(F)cc1`, for which the inhibition was -13.3%.
As for `CCOc1ccc(/C=C/C(=O)Nc2sc3c(c2C(=O)OC)CCCC3)cc1`, the figure is 11.2%; as for `CCC1CN(C(=O)NCc2ccc(F)cc2)c2cc(Cl)ccc2O1` (stereo unspecified), -11.4%; as for `COc1ccc(C2CC(=O)c3cc(-c4nc(-c5ccc(C)cc5)cs4)c(=O)[nH]c3C2)cc1` (stereo unspecified), -17.9%.
In the case of `CCOC(=O)c1c(C)[nH]c(C)c1S(=O)(=O)N(C)CC(=O)NCc1ccc(C)cc1` it was 9.77%; in that of `CCOc1cccc(CNC(=O)c2ccc(N3CCCC3)c(NC(=O)Nc3ccccc3CC)c2)c1`, -1.2%.
In the case of `Cc1cccc(OCC(O)Cn2c(=N)n(CCN3CCOCC3)c3ccccc32)c1` (stereo unspecified) it was active: 31.7%; in that of `COc1ccc(NC(=O)C2CCCN(S(=O)(=O)c3c(C)[nH]c(=O)[nH]c3=O)C2)cc1` (stereo unspecified), -2.24%; in that of `CCCCOc1ccc(CNC(=O)CN2C(=O)CCn3nc(-c4cn(C)c5ccccc45)cc32)cc1`, 3.08%.
Regarding `O=C(COc1cccc2cccnc12)Nc1ccccc1N1CCOCC1`, the inhibition was active: 30.2%.
Regarding `CCCCOc1ccc(Cl)cc1CSc1nnc(CC)n1N`, the inhibition was active: 35.5%.
In the case of `CCc1nn(CC(=O)NCCc2ccc(OC)c(OC)c2)c(=O)c2cc3occc3n12` it was -5.45%; in that of `CCOC(=O)c1ccc(NC(=O)CSc2nc(-c3ccc(F)cc3)cc(C(F)(F)F)c2C#N)cc1`, -16.4%.
As for `Cc1ccc(NC(=O)Nc2c(C)n(C)n(-c3ccccc3)c2=O)c(Cl)c1`, the figure is -0.138%; as for `COc1ccccc1NC(=O)c1ccc(-c2nc(COc3ccc(C)cc3)c(C)o2)cc1`, 5.45%.
As to `CCOc1ccc(NC(=O)C2=C(C)C(=O)OC23CCC(C)CC3)cc1` (stereo unspecified), the inhibition came to 17.3%.
In the case of `O=C(CSc1ncc2c(n1)-c1cc(Cl)ccc1N(Cc1ccccc1)S2(=O)=O)NCCc1ccccc1` it was 2.42%; in that of `CS(=O)(=O)Nc1ccc(-c2nc3ccccc3s2)cc1`, -10.8%.
With `COc1ccc(NC(=O)c2cccn2-c2nnc(N3CCCCC3)s2)c(OC)c1`, the inhibition was determined as 7.45%.
As for `COC(=O)c1ccc(C)c(NC(=O)Cn2cnc3ccccc3c2=O)c1`, the figure is active: 35.4%; as for `CCOC(=O)COc1cc(C)c(Cl)cc1C(=O)c1ccn2nc(-c3ccc(OC)cc3)cc2n1`, -6.09%; as for `Cc1ccc(NS(=O)(=O)c2ccc3c(c2)CCN3C(=O)C2CC2)c(C)c1`, 24.1%.
Regarding `Cc1ccc(NC(=O)c2ccc3c(O)c(S(=O)(=O)c4ccc(Cl)cc4)c(=O)[nH]c3c2)cc1`, the inhibition is -1.93%.
In the case of `CCOC(=O)C1CCCN(C(=O)Cn2ncc3c(C)n(Cc4ccc(Cl)cc4)c(C)c3c2=O)C1` (stereo unspecified) it was 9.11%; in that of `CC1=C(C#N)C(NC(=O)c2ccccc2)(C(F)(F)F)C(=O)N1` (stereo unspecified), -3.6%.
With `Cc1ccc(S(=O)(=O)c2nc(-c3cccs3)oc2SCc2ccc(F)cc2)cc1`, the inhibition is 9.66%.
As for `CC(C)c1ccccc1NC(=O)C(Cc1c[nH]c2ccccc12)NC(=O)OC(C)(C)C` (stereo unspecified), the figure is 3.21%; as for `Cc1cccc(N2CCN(C(=O)Cn3c(C)c4cnn(-c5ccccc5)c(=O)c4c3C)CC2)c1C`, 18.1%.
As for `CCCCn1c(SCc2ccccc2C)nc2ccsc2c1=O`, the figure is 10.7%; as for `COc1ccc(CNC(=O)C(=O)NCC(c2ccco2)S(=O)(=O)c2cccs2)cc1` (stereo unspecified), 12.6%; as for `Cc1nnc(SCc2cc(=O)c3cc(F)ccc3[nH]2)n1C`, -10.5%.
As for `COc1ccc(C(=O)NC2CC3CCCC(C2)N3Cc2ccccc2)cc1` (stereo unspecified), the figure is active: 82.3%; as for `O=C(Cc1ccc(NC(=O)N2CCCCc3ccccc32)cc1)NCc1cccc(Br)c1`, 3.25%; as for `COc1ccc(Cl)cc1NC(=O)Cn1c(=O)n(-c2ccc(C)cc2)c(=O)c2ccc(C(=O)NCc3ccccc3Cl)cc21`, -12%.
In the case of `COc1ccccc1CNC(=O)Cc1c(C)c2cc3c(C)coc3c(C)c2oc1=O`, the inhibition was found to be 28%.
In the case of `CCOc1ccc(CCNC(=O)C2Cc3ccccc3N2C(=O)CC)cc1` (stereo unspecified) it was 6.14%; in that of `Cc1ccccc1Cn1c(=O)n(Cc2ccco2)c(=O)c2sc3ccccc3c21`, 9.46%; in that of `COc1ccc(CNC(=O)CC(C)CC2=NS(=O)(=O)c3ccccc3N2)cc1` (stereo unspecified), -7.73%.
As for `CCN(CC)C(=O)C1=C(C)Nc2nc3ccccc3n2C1c1ccccc1F` (stereo unspecified), the figure is 8.61%; as for `CCC(=O)N1CCc2cc(CNC(=O)Nc3cc(OC)c(OC)c(OC)c3)ccc21`, 19.4%.
In the case of `CCOC(=O)c1cc2c(=O)n3ccccc3nc2n(CCCOC)c1=NC(=O)c1c(-c2c(F)cccc2Cl)noc1C` it was -12.8%; in that of `Cc1nc2c(c(C)nn2-c2ccccc2)c(C)c1CCC(=O)Nc1ccccc1`, 5.34%; in that of `O=C(Nc1ccc(S(=O)(=O)N(Cc2ccccc2)c2ccccc2)cc1)c1ccccc1F`, 15.2%.
For the compound `CCCn1ccc2c(OCC(=O)Nc3ccccc3C(=O)OCC)cccc2c1=O`, the inhibition is -3.58%.
In the case of `COC(=O)c1ccccc1NC(=O)CCCn1c(C)c2cnn(-c3ccccc3)c(=O)c2c1C` it was -1.85%; in that of `O=C(Nc1cccnc1)c1cc(-c2ccc(Cl)cc2Cl)on1`, active: 34.8%.
Turning to `CC(=O)c1ccc(NC(=O)[C@@H]2CCCN2C2=NS(=O)(=O)c3ccccc32)cc1`, the inhibition was active: 37.2%.
In the case of `Cc1ccccc1Cn1c(SCc2ccc(C(=O)N3CCCCC3)cc2)nc2ccncc21` it was -9.07%.
As for `CCCOc1ccc(OC(=O)c2ccc(-c3ccc(CCC)cn3)cc2)cc1`, the figure is -9.42%; as for `COc1cc(NC(=O)CCNC(=O)Cn2ccc3ccccc3c2=O)cc(OC)c1OC`, 0.352%; as for `C=CCNc1nc(C(=O)OCC(=O)Nc2c(Cl)cccc2C(F)(F)F)cs1`, active: 36.3%.
As for `O=C1CCc2cc(S(=O)(=O)NCc3ccccc3)cc3c2N1CC3`, the figure is 6.93%; as for `COc1ccc(CCNC(=O)c2cc(Nc3ccccc3)nc3ccccc23)cc1OC`, 0.397%; as for `CCn1c(C(=O)Nc2ccccc2C(=O)OC)cc2sc(Cl)cc21`, 2.62%.
As to `COC(=O)c1c(NC(=O)CCCOc2ccc(C)cc2)sc2c1CCCC2`, the inhibition came out at 3.27%.
As for `OC(COc1ccccc1)CN1CCN(CC(O)COc2ccccc2)CC1` (stereo unspecified), the figure is active: 30.5%; as for `CCOc1ccc(C(=O)N2CCc3cc(OC)c(OC)cc3C2COc2ccc3c(C)cc(=O)oc3c2)cc1OCC` (stereo unspecified), -4.09%; as for `CCOc1ccc(CNC(=O)CCCn2c(=O)c3cccn3c3cccnc32)cc1`, 22.7%.
For `CC(=O)c1ccc(NC(=O)C2CCN(S(=O)(=O)c3c(C)noc3/C=C/c3ccc(C)cc3)CC2)cc1`, the inhibition is -6.29%.
In the case of `Oc1ccccc1-c1nc2cnccn2c1Nc1ccc(Cl)cc1` it was 1.23%.
In the case of `COc1ccc(CNC(=O)CN2C(=O)COc3ccccc32)c(OC)c1` it was 6.05%.
As for `Cc1ccc2nc(NC(=O)CSc3cc(C)[nH]c(=O)n3)sc2c1`, the figure is 2.73%.
In the case of `CCCCn1c(S(=O)(=O)O)nc2ccccc21`, the inhibition was active: 33.1%.
For the compound `CC1CC(C)CN(CCOc2cccc(Cl)c2Cl)C1` (stereo unspecified), the inhibition is active: 86.4%.
As for `COc1ccc(-c2nn3c(-c4ccccc4)nnc3c3ccccc23)cc1`, the figure is 2.77%; as for `CC(=O)c1cccc(NC(=O)CCn2nc(C)c(S(=O)(=O)N3CCCCC3)c2C)c1`, -11.8%.
In the case of `O=C(NCCc1ccc(Cl)cc1)c1cnc2sc(N3CCCC3)nn2c1=O` it was 13.2%; in that of `Cc1ccc(OCC(=O)NCC(=O)OCc2cc(=O)n3nc(CC(C)C)sc3n2)cc1`, 5.88%; in that of `CCc1ccccc1NC(=O)C1CCCN(S(=O)(=O)c2ccc3[nH]c(=O)ccc3c2)C1` (stereo unspecified), 14.8%.
